From PubChem BioAssay AID652106 (National Center for Advancing Translational Sciences (NCATS), 2013)
In all, about 370,000 compounds went through this assay and about 500 (0.14%) were called active. Inconclusive means that the source gave no clear call. Such entries were picked first, then a sample of the others. The call rests on the fitted dose curve; in most records, active means well fitted activation curve with a large enough effect; inconclusive means small, poorly fitted or top-dose-only effect; inactive means no such curve, though single readings can be large or run the other way. Potencies of inconclusive entries are left out as doubtful fits.

Test: qHTS of alpha-syn Inhibitors; further: nearly all actives have a fitted effect of over 65% in size
Conditions: Yeast expressing alpha-synuclein, BacTiter-Glo, 24 h; Potency: growth rescue unless noted; series mostly up to 46.1 µM
Outline: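 Readout is rescue of growth in alpha-synuclein-expressing yeast, so inhibitors of toxicity appear as activators. Growth after 24 hr at 30 deg C in galactose medium is quantified by luminescence.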
Potency means the concentration at half of the fitted maximal effect; tags describe the fitted curve by direction and shape.

Compound | Potency
CCN1C(=O)[C@H]2[C@@H](c3ccc(-c4ccc(Cl)c(Cl)c4)c(OC)c3)N[C@@](C)(C(=O)OC)[C@H]2C1=O | inactive
CC(C)(CNC(=O)c1ccccc1F)CNC(=O)c1ccccc1F | inconclusive [activator, single point]
C=C(CO)C1Cc2cc(C(C)=O)ccc2O1 (stereo not drawn) | inconclusive [activator, single point]
Cc1ccc(C)c(N2CCN(C(=O)CN3CCSc4ccc(S(=O)(=O)N(C)C)cc43)CC2)c1 | inconclusive [activator, single point]
Cc1c(CC(=O)O)c(=O)oc2cc(OCc3ccc(F)cc3F)ccc12 | inconclusive [activator, single point]
COC(=O)c1c(-c2ccc(S(C)(=O)=O)cc2)sc2cc(OC)ccc12 | inactive
O=C1CSC(c2ccc(Cl)cc2)N1c1cccnc1 (stereo not drawn) | inactive
CCCCn1c(=O)c(CCC(=O)OCC(=O)Nc2ccc(F)c(Cl)c2)nc2ccccc21 | inactive
Cc1ccc(/C=C/C(=O)N2CCN(S(=O)(=O)c3c(C)c(C)cc(C)c3C)CC2)o1 | inconclusive [activator, partial curve]
CC1CCCCN1C(=O)c1cnn2c1NC(=C1CC1)C=C2C(F)F (stereo not drawn) | inconclusive [activator, single point]
CCOC(=O)C1CCCN(S(=O)(=O)c2ccc(Br)s2)C1 (stereo not drawn) | inconclusive [activator, partial curve, poor fit]
C/C=C(\C)c1nnc(NC(=O)OCC)s1 | inconclusive [activator, single point]
C#CCOCCOCCOCCNc1nc(N2CCN(C(=O)CCCCCCCCCCNC(=O)[C@H](CCCCN)n3cc(C)nn3)CC2)nc(N2CCN(C(=O)CCCCCCCCCCNC(=O)[C@@H]([C@H](C)O)n3cc(C)nn3)CC2)n1 | inactive
COc1cccc(-c2cc(NC=O)c3ncc(-c4ccc(C(C)=O)cc4)n3c2)c1 | inconclusive [activator, single point]
COc1ccc(C(=O)NC(=S)Nc2ccc(S(N)(=O)=O)cc2)cc1 | inactive
COc1ccccc1Cc1c(-c2ccccc2)nc2ccc(Cl)cn12 | inactive
COCCN1CCC(CNCc2c(C(=O)N3CCCCC3)nc3c(C)cccn23)C1 (stereo not drawn) | inconclusive [activator, single point]
Cc1ccc(N2CCN(C(=O)c3cnn(-c4ccc(C)c(C)c4)c3C3CCNCC3)CC2)c(C)c1 | inconclusive [activator, single point]
